The results in this text go back to patent US20230312682A1 (published 2023).

A word on the EC50: it is the concentration needed to bring the measured effect to its halfway point. A high value points to weaker potency. One may read the Kd as the constant that tells how readily two partners part at equilibrium. For orientation: koff means a measure of how fast the partners let go of each other. Lower therefore signals a long-lived complex. Broadly, the kon is a measure of how fast the partners come together. A higher kon goes with fast association.

Read-outs that look alike come from different tables or passages of the source.

Assay [1] has as its target T1, CD47 on the surfaces of cells (human, UniProt Q08722). Put plainly: cell-based or functional assay.
Assay [2] deals with T1, CD47 on the surfaces of cells. Put plainly: cell-based or functional assay. The source holds these as a separate data set.
For assay [3], the target named is T2, CD47-His (human, UniProt Q08722 part only).
T2 construct: also called Human CD47-His; SIRPα-Fc fusion protein's ligand CD47-His
The assay is described as follows: ELISA, plate coated with CD47-His, anti-human Fc-HRP detection. As for the experimental part: (§1) Method: Human CD47-His prepared in Example 1.3 was diluted to 100 ng/mL with a sodium carbonate buffer, and then the dilution was added to a microplate at 100 μL per well. The plate was incubated at room temperature for 2 h and washed with PBST. The plate was blocked by adding PBST containing 1% bovine serum albumin (BSA) to each well and incubated at room temperature for 1 h. The plate was washed twice with PBST, and serially diluted antibodies or fusion proteins were added. The plate was incubated for half an hour and washed twice with PBST. A properly diluted HRP-labeled goat anti-human (Fc-Specific) secondary antibody was added, and the plate was incubated for half an hour. After the plate was washed, a color developing solution was added for color development, and the color development was terminated with a stop solution. The OD450 was read using on a microplate reader. The data were analyzed in GraphPad Prism 6 and plotted, and EC₅₀ was calculated.

For assay [4], the target named is T2, CD47-His. Described as above. As for the experimental part: as §1
This is another data set of the same source.

Assay [5] deals with T2, CD47-His. The description is as above. The protocol: as §1
The source holds these as a separate data set.

Assay [6] deals with T2, CD47-His. Described as above. The protocol: as §1
The source holds these as a separate data set.

For assay [7], the target named is T2, CD47-His. The assay is described as follows: SPR (Biacore 8K), captured on Protein A chip, CD47-His as analyte. The protocol: Biacore is a method commonly used for molecular interaction analysis based on the principle of surface plasmon resonance (SPR for short). Here, Biacore was used to determine the affinity of the SIRP mutants described above and anti-CD47 antibodies for the extracellular end of CD47. Experimental method and procedure: The SIRP mutant or anti-CD47 antibodies were diluted to a concentration of 1 μg/mL with HBS-EP⁺ buffer (pH 7.4, purchased from Cytiva, catalog No. BR-1006-69). […] A 6 M solution of guanidine hydrochloride was used as a regeneration buffer. Sensor Chip Protein A (purchased from Cytiva, catalog No. 29-1275-55) was used to capture antibody on Biacore 8K (purchased from GE Healthcare). Then CD47-His was used as an analyte and allowed to flow over the chip, and an association-dissociation curve was obtained. After the chip was regenerated with the regeneration buffer, another cycle was carried out. The data were analyzed using Biacore 8K Evaluation Software.
Background: Surface plasmon resonance follows binding to a sensor surface in real time, without labels.

Assay [8] addresses T2, CD47-His. Put plainly: ELISA, plate coated with CD47-His, anti-human Fc-HRP detection. This is another data set of the same source.
Assay [9] addresses T1, CD47 on the surfaces of cells. The assay is described as follows: flow cytometry on Daudi cells, FITC anti-human Fc. The protocol: The binding capacity of the prepared SIRP-Fc-IgG1 mutants to CD47 on the surfaces of Daudi cells (human lymphoma cells) was determined by flow cytometry. Experimental procedure: After being counted, Daudi cells were inoculated into a 96-well round-bottom culture plate at 2E5 cells/150 μL by using a PBS solution containing 1% bovine serum albumin (BSA). To the 96-well plate described above were added 50 μL of SIRPα-Fc fusion protein mutants serially diluted with the PBS solution. The plate was incubated at room temperature for 1 h and then centrifuged, and the supernatant was discarded. Then the cells were washed twice with PBS. An FITC-labeled goat anti-human (Fc-Specific) antibody (1:1000 diluted with PBS containing 1% BSA) was added. The plate was incubated at room temperature for half an hour and centrifuged, and the cells were washed and then tested for mean fluorescence intensity (MFI) in the FITC channel on a flow cytometer (CytoFLEX Cytometer System, purchased from Beckman Coulter). The experimental data were processed using the software provided with the flow cytometer, and the mean fluorescence intensity was calculated. The data were analyzed and plotted in GraphPad Prism 6, and EC₅₀ was calculated.
A general note: In flow cytometry, cells or beads pass a laser one at a time.

B1: SIRP6-IgG4 (Fc fusion)
chain: EEELQVIQPDKSVSVAAGESAILHCTLTSLLPVGPIQWFRGAGPARQLIYNQKEGHFPRVTTVSDATKRSNMDFSISISNITPADAGTYYCVKFRKGSPDTEFKSGAGTELSVRAKPSGGGGS[sequence of human IgG4 Fc with S228P (EU numbers) omitted]
B1: in [1], the “ADCP of Daudi cells by human macrophages, EC50” value was found to be 0.092 nM; the “ADCP of Daudi cells by human macrophages, Top (highest degree of ADCP by curve fitting)” value was determined as 27.6; the “ADCP of Jurkat cells by human macrophages, EC50” value is 0.077 nM; the “ADCP of Jurkat cells by human macrophages, Top (highest degree of ADCP by curve fitting)” value amounted to 40.7. The “ADCC on Daudi cells with human PBMCs, EC50” value in assay [2] stood at 583 nM. In the assay with CD47-His [3], this molecule came in with a 50% effective concentration (EC50) of 0.0478 nM and a Top of 1.53 OD450. In the assay with CD47-His [4], this molecule came in with an EC50 of 0.0545 nM and a Top of 1.54 OD450. In the assay with CD47-His [5], this molecule came in with a Top of 1.54 OD450. In the assay with CD47-His [6], this molecule registered an EC50 of 0.0555 nM and a Top of 1.01 OD450. In the assay with CD47-His [7], this molecule had a Kd of 0.225 nM, a dissociation rate constant (koff) of 0.000377 s⁻¹ and a kon of 1.68e+06 M⁻¹ s⁻¹.

B2: SIRP6-IgG4-V6L (Fc fusion)
chain: EEELQLIQPDKSVSVAAGESAILHCTLTSLLPVGPIQWFRGAGPARQLIYNQKEGHFPRVTTVSDATKRSNMDFSISISNITPADAGTYYCVKFRKGSPDTEFKSGAGTELSVRAKPSGGGGS[sequence of human IgG4 Fc with S228P (EU numbers) omitted]
As for B2, the EC50 in the assay with CD47-His [3] turned out to be 0.0347 nM; in the assay with CD47-His [4] it was 0.0429 nM; with CD47-His [5], 0.0429 nM. The results for the Top in the assay with CD47-His [3], with CD47-His [4] and with CD47-His [5] were 1.71 OD450, 1.63 OD450 and 1.63 OD450, respectively.

B3: SIRP6-IgG4-V6L + H56R (Fc fusion)
chain: EEELQLIQPDKSVSVAAGESAILHCTLTSLLPVGPIQWFRGAGPARQLIYNQKEGRFPRVTTVSDATKRSNMDFSISISNITPADAGTYYCVKFRKGSPDTEFKSGAGTELSVRAKPSGGGGS[sequence of human IgG4 Fc with S228P (EU numbers) omitted]
As for B3, the values for the EC50 in the assay with CD47-His [4] and with CD47-His [5] were 0.0393 nM and 0.0453 nM, respectively. Further, the Top in the assay with CD47-His [4] worked out at 1.76 OD450; with CD47-His [5], 1.7 OD450.

B4: SIRP6-IgG4-V6L + H56R + A66G (Fc fusion)
chain: EEELQLIQPDKSVSVAAGESAILHCTLTSLLPVGPIQWFRGAGPARQLIYNQKEGRFPRVTTVSDGTKRSNMDFSISISNITPADAGTYYCVKFRKGSPDTEFKSGAGTELSVRAKPSGGGGS[sequence of human IgG4 Fc with S228P (EU numbers) omitted]
In the assay with CD47-His [5], B4 showed an EC50 of 0.0339 nM and a Top of 1.77 OD450. In the assay with CD47-His [6], the concentration giving a half-maximal response (EC50) is 0.0363 nM and the Top turned out to be 1.48 OD450.

B5: SIRP6-IgG4-V6L + H56R + A66G + K53R (Fc fusion)
chain: EEELQLIQPDKSVSVAAGESAILHCTLTSLLPVGPIQWFRGAGPARQLIYNQREGRFPRVTTVSDGTKRSNMDFSISISNITPADAGTYYCVKFRKGSPDTEFKSGAGTELSVRAKPSGGGGS[sequence of human IgG4 Fc with S228P (EU numbers) omitted]
notes: also called SIRP10-IgG4; SIRP1O-IgG4
With B5, in the assay with CD47-His [6], the EC50 was determined as 0.0344 nM and the Top was determined as 1.64 OD450. Besides, in the assay with CD47-His [7], the dissociation constant (Kd) worked out at 0.0451 nM, the koff turned out to be 7.9e-05 s⁻¹ and the kon stood at 1.75e+06 M⁻¹ s⁻¹.

B6: Mutant-R95Q + K96R (Fc fusion)
chain: EEELQVIQPDKSVSVAAGESAILHCTVTSLIPVGPIQWFRGAGPARELIYNQKEGHFPRVTTVSESTKRENMDFSISISNITPADAGTYYCVKFQRGSPDTEFKSGAGTELSVRAKPSGGGGS[sequence of human IgG1 Fc omitted]
In the assay with CD47-His [8], B6 gave a Height of top plateau of 0.0553 OD450.

B7: Mutant-I31L + V27L + E65D + S66A + E47Q + E70S (Fc fusion)
chain: EEELQVIQPDKSVSVAAGESAILHCTLTSLLPVGPIQWFRGAGPARQLIYNQKEGHFPRVTTVSDATKRSNMDFSISISNITPADAGTYYCVKFRKGSPDTEFKSGAGTELSVRAKPSGGGGS[sequence of human IgG1 Fc omitted]
notes: SIRP-Fc-IgG1 mutant, IgG1 Fc; also called M33; SIRP6
Take B7: in assay [1], the “ADCP of Daudi cells by human macrophages, EC50” value is 0.067 nM; the “ADCP of Daudi cells by human macrophages, Top (highest degree of ADCP by curve fitting)” value came out at 25.6; the “ADCP of Jurkat cells by human macrophages, EC50” value amounted to 0.14 nM; the “ADCP of Jurkat cells by human macrophages, Top (highest degree of ADCP by curve fitting)” value is 47.8. Also, in assay [2], the “ADCC on Daudi cells with human PBMCs, EC50” value worked out at 0.0781 nM and the “ADCC on Daudi cells with human PBMCs, Top (highest degree of ADCC by curve fitting)” value amounted to 52.5. In assay [9], it took 0.132 nM to reach a half-maximal effect (EC50).
